Here are results for seven molecules from publication PMC8368198.

Amino acid sequences for entries named in this document (tags omitted). Residues count along the entry.
UniProt P38646, residues 47-679: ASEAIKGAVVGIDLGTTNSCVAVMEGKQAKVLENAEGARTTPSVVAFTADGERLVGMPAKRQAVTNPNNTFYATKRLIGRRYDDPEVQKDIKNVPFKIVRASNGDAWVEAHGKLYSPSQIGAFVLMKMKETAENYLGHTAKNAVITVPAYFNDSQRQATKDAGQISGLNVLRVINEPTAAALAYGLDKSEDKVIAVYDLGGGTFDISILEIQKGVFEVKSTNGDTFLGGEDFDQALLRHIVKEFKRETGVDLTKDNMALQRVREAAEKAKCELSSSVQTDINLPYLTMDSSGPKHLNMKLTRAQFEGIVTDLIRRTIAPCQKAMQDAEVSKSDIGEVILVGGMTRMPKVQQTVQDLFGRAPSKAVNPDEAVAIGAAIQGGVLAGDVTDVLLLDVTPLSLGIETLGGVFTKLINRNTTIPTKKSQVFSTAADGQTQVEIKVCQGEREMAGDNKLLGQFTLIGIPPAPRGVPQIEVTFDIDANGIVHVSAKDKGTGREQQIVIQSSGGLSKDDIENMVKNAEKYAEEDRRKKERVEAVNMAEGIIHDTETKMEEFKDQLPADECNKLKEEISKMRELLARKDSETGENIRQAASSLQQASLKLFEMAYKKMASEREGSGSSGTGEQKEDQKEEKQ

Results are given in words; binding and its absence hold for the method and conditions named. In cells and extracts the contact can be indirect. Some entries that bind do so weakly or less than the wild type. For some of these results: Sequences can lack the tags named with a protein.

Assay [1] addresses T1, 3x FLAG-tagged wild-type LONP1 (human ATP-dependent mitochondrial Lon protease) (human) (UniProt P36776).
T1 sequence: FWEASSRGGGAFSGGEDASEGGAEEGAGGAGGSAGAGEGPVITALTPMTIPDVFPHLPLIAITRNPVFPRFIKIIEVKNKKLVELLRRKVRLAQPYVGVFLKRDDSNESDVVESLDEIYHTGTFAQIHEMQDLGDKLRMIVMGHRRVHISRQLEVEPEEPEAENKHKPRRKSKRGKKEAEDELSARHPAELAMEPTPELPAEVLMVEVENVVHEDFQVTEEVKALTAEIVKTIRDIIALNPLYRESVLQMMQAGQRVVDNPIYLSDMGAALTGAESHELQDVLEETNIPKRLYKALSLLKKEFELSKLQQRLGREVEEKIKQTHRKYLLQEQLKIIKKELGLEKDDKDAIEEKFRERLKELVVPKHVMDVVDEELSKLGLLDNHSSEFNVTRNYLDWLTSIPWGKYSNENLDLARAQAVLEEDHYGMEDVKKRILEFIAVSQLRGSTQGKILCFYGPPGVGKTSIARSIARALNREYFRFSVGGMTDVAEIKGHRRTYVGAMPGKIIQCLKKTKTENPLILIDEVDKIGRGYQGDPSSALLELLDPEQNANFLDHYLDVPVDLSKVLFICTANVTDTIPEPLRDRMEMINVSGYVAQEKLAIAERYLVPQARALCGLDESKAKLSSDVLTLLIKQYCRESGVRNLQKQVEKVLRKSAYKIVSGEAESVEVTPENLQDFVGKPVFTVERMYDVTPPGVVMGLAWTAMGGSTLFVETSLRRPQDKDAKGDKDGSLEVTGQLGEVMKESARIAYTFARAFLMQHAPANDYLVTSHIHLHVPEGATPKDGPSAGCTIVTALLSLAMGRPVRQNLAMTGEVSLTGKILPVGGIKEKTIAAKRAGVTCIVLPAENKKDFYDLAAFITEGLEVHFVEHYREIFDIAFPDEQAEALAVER
Put plainly: co-IP; HEK293 cells expressing 3xFLAG-LONP1 (1 ng/mL doxycycline, 3 d) treated with the reversible crosslinker DSP (2 mM, on ice, 30 min), extracted in RIPA buffer; anti-FLAG-tag mAb magnetic beads, 90 min at 4 °C, eluted with FLAG peptides; DSP cleaved with DTT; immunoblot.

Assay [2] concerns the target T2, mitochondrial inner membrane translocase, TIMM22 (human (endogenous; HeLa or HEK293, cells not stated)) (UniProt Q9Y584).
T2 sequence: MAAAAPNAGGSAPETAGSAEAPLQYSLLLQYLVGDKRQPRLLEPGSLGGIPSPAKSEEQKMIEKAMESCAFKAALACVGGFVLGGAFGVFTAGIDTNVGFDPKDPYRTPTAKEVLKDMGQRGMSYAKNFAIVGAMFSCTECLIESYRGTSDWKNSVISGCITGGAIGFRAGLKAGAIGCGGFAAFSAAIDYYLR
Put plainly: co-IP; immunoprecipitation with anti-TIMM22 antibody (Proteintech) on Dynabeads Protein G; immunoblot (Supplementary Fig. S9d).

Assay [3] concerns the target T3, LONP1 (endogenous, in isolated HeLa mitochondria) (human (endogenous in HeLa)) (UniProt P36776).
T3 sequence: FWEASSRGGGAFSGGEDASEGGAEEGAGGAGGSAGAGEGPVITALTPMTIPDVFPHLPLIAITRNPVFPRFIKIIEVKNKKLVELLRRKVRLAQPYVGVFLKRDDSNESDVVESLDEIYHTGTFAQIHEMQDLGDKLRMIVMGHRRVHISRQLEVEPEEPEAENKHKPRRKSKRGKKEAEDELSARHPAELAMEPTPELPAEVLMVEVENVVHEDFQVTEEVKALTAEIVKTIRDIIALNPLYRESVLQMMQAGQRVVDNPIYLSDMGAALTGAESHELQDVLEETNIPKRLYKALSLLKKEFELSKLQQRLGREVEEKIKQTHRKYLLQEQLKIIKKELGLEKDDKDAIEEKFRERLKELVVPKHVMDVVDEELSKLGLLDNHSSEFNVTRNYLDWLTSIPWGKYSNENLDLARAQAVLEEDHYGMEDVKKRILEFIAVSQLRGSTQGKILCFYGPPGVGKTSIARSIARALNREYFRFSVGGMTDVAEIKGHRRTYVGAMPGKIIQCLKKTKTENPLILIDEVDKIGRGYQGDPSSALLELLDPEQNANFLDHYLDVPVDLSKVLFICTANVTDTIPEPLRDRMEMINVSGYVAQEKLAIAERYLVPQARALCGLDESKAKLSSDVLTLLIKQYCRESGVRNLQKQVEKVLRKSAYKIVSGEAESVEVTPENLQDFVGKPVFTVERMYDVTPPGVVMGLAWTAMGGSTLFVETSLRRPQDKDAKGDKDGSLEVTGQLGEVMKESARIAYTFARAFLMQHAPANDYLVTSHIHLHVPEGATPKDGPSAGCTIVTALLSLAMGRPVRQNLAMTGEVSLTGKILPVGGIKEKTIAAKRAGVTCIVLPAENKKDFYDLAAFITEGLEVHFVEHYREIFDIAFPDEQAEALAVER
The assay can be described thus: co-IP; in vitro import assay: in vitro translated precursor incubated with isolated HeLa mitochondria for 20 min at 30 °C; mitochondria treated with DSP on ice for 30 min, extracted in RIPA buffer; anti-LONP1 antibody (Proteintech) on Dynabeads Protein G; immunoblot (Supplementary Fig. S10b).

As to “mtHSP70/mortalin/HSPA9 (from UniProt P38646 47-679)”, in assay [1], the binding result was “binds”.

On to MRPS16 (from UniProt Q9Y3D3 35-137), for which the binding result in assay [1] is “binds”.

B1: LONP1 (as in the co-immunoprecipitations of Supplementary Fig. S9) (enzyme, UniProt P36776 68-959)
chain: FWEASSRGGGAFSGGEDASEGGAEEGAGGAGGSAGAGEGPVITALTPMTIPDVFPHLPLIAITRNPVFPRFIKIIEVKNKKLVELLRRKVRLAQPYVGVFLKRDDSNESDVVESLDEIYHTGTFAQIHEMQDLGDKLRMIVMGHRRVHISRQLEVEPEEPEAENKHKPRRKSKRGKKEAEDELSARHPAELAMEPTPELPAEVLMVEVENVVHEDFQVTEEVKALTAEIVKTIRDIIALNPLYRESVLQMMQAGQRVVDNPIYLSDMGAALTGAESHELQDVLEETNIPKRLYKALSLLKKEFELSKLQQRLGREVEEKIKQTHRKYLLQEQLKIIKKELGLEKDDKDAIEEKFRERLKELVVPKHVMDVVDEELSKLGLLDNHSSEFNVTRNYLDWLTSIPWGKYSNENLDLARAQAVLEEDHYGMEDVKKRILEFIAVSQLRGSTQGKILCFYGPPGVGKTSIARSIARALNREYFRFSVGGMTDVAEIKGHRRTYVGAMPGKIIQCLKKTKTENPLILIDEVDKIGRGYQGDPSSALLELLDPEQNANFLDHYLDVPVDLSKVLFICTANVTDTIPEPLRDRMEMINVSGYVAQEKLAIAERYLVPQARALCGLDESKAKLSSDVLTLLIKQYCRESGVRNLQKQVEKVLRKSAYKIVSGEAESVEVTPENLQDFVGKPVFTVERMYDVTPPGVVMGLAWTAMGGSTLFVETSLRRPQDKDAKGDKDGSLEVTGQLGEVMKESARIAYTFARAFLMQHAPANDYLVTSHIHLHVPEGATPKDGPSAGCTIVTALLSLAMGRPVRQNLAMTGEVSLTGKILPVGGIKEKTIAAKRAGVTCIVLPAENKKDFYDLAAFITEGLEVHFVEHYREIFDIAFPDEQAEALAVER
Take B1: in assay [2], the binding entry is “no binding”.

B2: SOD2-3xFLAG, unprocessed form (mitochondrial precursor protein) (protein, UniProt P04179 1-222)
chain: MLSRAVCGTSRQLAPVLGYLGSRQKHSLPDLPYDYGALEPHINAQIMQLHHSKHHAAYVNNLNVTEEKYQEALAKGDVTAQIALQPALKFNGGGHINHSIFWTNLSPNGGGEPKGELLEAIKRDFGSFDKFKEKLTAASVGVQGSGWGWLGFNKERGHLQIAACPNQDPLQGTTGLIPLLGIDVWEHAYYLQYKNVRPDYLKAIWNVINWENVTERYMACKK
Turning to B2, the binding result in assay [3] is on record as “no binding”.

B3: superoxide dismutase 2 (SOD2), endogenous (protein, UniProt P04179 25-222)
chain: KHSLPDLPYDYGALEPHINAQIMQLHHSKHHAAYVNNLNVTEEKYQEALAKGDVTAQIALQPALKFNGGGHINHSIFWTNLSPNGGGEPKGELLEAIKRDFGSFDKFKEKLTAASVGVQGSGWGWLGFNKERGHLQIAACPNQDPLQGTTGLIPLLGIDVWEHAYYLQYKNVRPDYLKAIWNVINWENVTERYMACKK
In the case of B3, the binding result in assay [1] was “no binding”.

B4: SOD2-3xFLAG, mature form (protein, UniProt P04179 25-222)
chain: KHSLPDLPYDYGALEPHINAQIMQLHHSKHHAAYVNNLNVTEEKYQEALAKGDVTAQIALQPALKFNGGGHINHSIFWTNLSPNGGGEPKGELLEAIKRDFGSFDKFKEKLTAASVGVQGSGWGWLGFNKERGHLQIAACPNQDPLQGTTGLIPLLGIDVWEHAYYLQYKNVRPDYLKAIWNVINWENVTERYMACKK
Regarding B4, the binding result in assay [3] is “no binding”.

B5: PMPCB (protease subunit of mitochondrial processing peptidase) (protein, UniProt O75439 44-489)
chain: STQAATQVVLNVPETRVTCLESGLRVASEDSGLSTCTVGLWIDAGSRYENEKNNGTAHFLEHMAFKGTKKRSQLDLELEIENMGAHLNAYTSREQTVYYAKAFSKDLPRAVEILADIIQNSTLGEAEIERERGVILREMQEVETNLQEVVFDYLHATAYQNTALGRTILGPTENIKSISRKDLVDYITTHYKGPRIVLAAAGGVSHDELLDLAKFHFGDSLCTHKGEIPALPPCKFTGSEIRVRDDKMPLAHLAIAVEAVGWAHPDTICLMVANTLIGNWDRSFGGGMNLSSKLAQLTCHGNLCHSFQSFNTSYTDTGLWGLYMVCESSTVADMLHVVQKEWMRLCTSVTESEVARARNLLKTNMLLQLDGSTPICEDIGRQMLCYNRRIPIPELEARIDAVNAETIREVCTKYIYNRSPAIAAVGPIKQLPDFKQIRSNMCWLRD
Consider B5, for which, in assay [1], the binding entry is listed as “binds”.
